US20110319597A1 (CAPHALON AUSTRALIA, published 2011)

target: T1, recombinant human TNFα (CytoLab) (human, UniProt P01375 partial chain); assay: ELISA on coated human TNFα
T1 construct: coated on the ELISA plate at 1 µg/ml; also called Tumour necrosis factor alpha
T1 sequence (P01375 77-233 limits assumed): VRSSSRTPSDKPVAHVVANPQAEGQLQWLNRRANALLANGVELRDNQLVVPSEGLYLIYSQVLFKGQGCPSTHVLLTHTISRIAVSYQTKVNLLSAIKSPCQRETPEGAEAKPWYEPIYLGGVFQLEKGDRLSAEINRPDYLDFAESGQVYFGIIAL

Binder | A450 (AU)
TNFα dAb Fc variant L79V (Fc fusion, name in Kabat numbering) DIQMTQSPSSLSASVGDRVTITCRASQAIDSYLHWYQQKPGKAPKLLIYSASNLETGVPSRFSGSGSGTDFTLTISSLVPEDFATYYCQQVVWRPFTFGQGTKVEIKRV[human IgG1 Fc with changes left out] | 1.44 AU
TNFα dAb Fc variant A43D (Fc fusion, name in Kabat numbering) DIQMTQSPSSLSASVGDRVTITCRASQAIDSYLHWYQQKPGKDPKLLIYSASNLETGVPSRFSGSGSGTDFTLTISSLLPEDFATYYCQQVVWRPFTFGQGTKVEIKRV[human IgG1 Fc with changes left out] | 0.661 AU
TNFα dAb Fc variant A43L (Fc fusion, name in Kabat numbering) DIQMTQSPSSLSASVGDRVTITCRASQAIDSYLHWYQQKPGKLPKLLIYSASNLETGVPSRFSGSGSGTDFTLTISSLLPEDFATYYCQQVVWRPFTFGQGTKVEIKRV[human IgG1 Fc with changes left out] | 0.718 AU
TNFα dAb Fc variant A43P (Fc fusion, name in Kabat numbering) DIQMTQSPSSLSASVGDRVTITCRASQAIDSYLHWYQQKPGKPPKLLIYSASNLETGVPSRFSGSGSGTDFTLTISSLLPEDFATYYCQQVVWRPFTFGQGTKVEIKRV[human IgG1 Fc with changes left out] | 0.825 AU
TNFα dAb Fc variant A43S (Fc fusion, name in Kabat numbering) DIQMTQSPSSLSASVGDRVTITCRASQAIDSYLHWYQQKPGKSPKLLIYSASNLETGVPSRFSGSGSGTDFTLTISSLLPEDFATYYCQQVVWRPFTFGQGTKVEIKRV[human IgG1 Fc with changes left out] | 0.831 AU
TNFα dAb Fc variant A84D (Fc fusion, name in Kabat numbering) DIQMTQSPSSLSASVGDRVTITCRASQAIDSYLHWYQQKPGKAPKLLIYSASNLETGVPSRFSGSGSGTDFTLTISSLLPEDFDTYYCQQVVWRPFTFGQGTKVEIKRV[human IgG1 Fc with changes left out] | 0.177 AU
TNFα dAb Fc variant A84H (Fc fusion, name in Kabat numbering) DIQMTQSPSSLSASVGDRVTITCRASQAIDSYLHWYQQKPGKAPKLLIYSASNLETGVPSRFSGSGSGTDFTLTISSLLPEDFHTYYCQQVVWRPFTFGQGTKVEIKRV[human IgG1 Fc with changes left out] | 0.326 AU
TNFα dAb Fc variant A84K (Fc fusion, name in Kabat numbering) DIQMTQSPSSLSASVGDRVTITCRASQAIDSYLHWYQQKPGKAPKLLIYSASNLETGVPSRFSGSGSGTDFTLTISSLLPEDFKTYYCQQVVWRPFTFGQGTKVEIKRV[human IgG1 Fc with changes left out] | 0.292 AU
TNFα dAb Fc variant A84L (Fc fusion, name in Kabat numbering) DIQMTQSPSSLSASVGDRVTITCRASQAIDSYLHWYQQKPGKAPKLLIYSASNLETGVPSRFSGSGSGTDFTLTISSLLPEDFLTYYCQQVVWRPFTFGQGTKVEIKRV[human IgG1 Fc with changes left out] | 0.212 AU
TNFα dAb Fc variant A84P (Fc fusion, name in Kabat numbering) DIQMTQSPSSLSASVGDRVTITCRASQAIDSYLHWYQQKPGKAPKLLIYSASNLETGVPSRFSGSGSGTDFTLTISSLLPEDFPTYYCQQVVWRPFTFGQGTKVEIKRV[human IgG1 Fc with changes left out] | 0.178 AU
TNFα dAb Fc variant A84Q (Fc fusion, name in Kabat numbering) DIQMTQSPSSLSASVGDRVTITCRASQAIDSYLHWYQQKPGKAPKLLIYSASNLETGVPSRFSGSGSGTDFTLTISSLLPEDFQTYYCQQVVWRPFTFGQGTKVEIKRV[human IgG1 Fc with changes left out] | 0.28 AU
TNFα dAb Fc variant A84S (Fc fusion, name in Kabat numbering) DIQMTQSPSSLSASVGDRVTITCRASQAIDSYLHWYQQKPGKAPKLLIYSASNLETGVPSRFSGSGSGTDFTLTISSLLPEDFSTYYCQQVVWRPFTFGQGTKVEIKRV[human IgG1 Fc with changes left out] | 0.645 AU
TNFα dAb Fc variant A84Y (Fc fusion, name in Kabat numbering) DIQMTQSPSSLSASVGDRVTITCRASQAIDSYLHWYQQKPGKAPKLLIYSASNLETGVPSRFSGSGSGTDFTLTISSLLPEDFYTYYCQQVVWRPFTFGQGTKVEIKRV[human IgG1 Fc with changes left out] | 0.179 AU
TNFα dAb Fc variant D70H (Fc fusion, name in Kabat numbering) DIQMTQSPSSLSASVGDRVTITCRASQAIDSYLHWYQQKPGKAPKLLIYSASNLETGVPSRFSGSGSGTHFTLTISSLLPEDFATYYCQQVVWRPFTFGQGTKVEIKRV[human IgG1 Fc with changes left out] | 1.03 AU
TNFα dAb Fc variant D70K (Fc fusion, name in Kabat numbering) DIQMTQSPSSLSASVGDRVTITCRASQAIDSYLHWYQQKPGKAPKLLIYSASNLETGVPSRFSGSGSGTKFTLTISSLLPEDFATYYCQQVVWRPFTFGQGTKVEIKRV[human IgG1 Fc with changes left out] | 0.977 AU

Now from value to binder:

A450 (AU) | Binder
0.991 AU | TNFα dAb Fc variant D70L (Fc fusion, name in Kabat numbering) DIQMTQSPSSLSASVGDRVTITCRASQAIDSYLHWYQQKPGKAPKLLIYSASNLETGVPSRFSGSGSGTLFTLTISSLLPEDFATYYCQQVVWRPFTFGQGTKVEIKRV[human IgG1 Fc with changes left out]
0.349 AU | TNFα dAb Fc variant D70P (Fc fusion, name in Kabat numbering) DIQMTQSPSSLSASVGDRVTITCRASQAIDSYLHWYQQKPGKAPKLLIYSASNLETGVPSRFSGSGSGTPFTLTISSLLPEDFATYYCQQVVWRPFTFGQGTKVEIKRV[human IgG1 Fc with changes left out]
0.938 AU | TNFα dAb Fc variant D70Y (Fc fusion, name in Kabat numbering) DIQMTQSPSSLSASVGDRVTITCRASQAIDSYLHWYQQKPGKAPKLLIYSASNLETGVPSRFSGSGSGTYFTLTISSLLPEDFATYYCQQVVWRPFTFGQGTKVEIKRV[human IgG1 Fc with changes left out]
0.219 AU | TNFα dAb Fc variant D82A (Fc fusion, name in Kabat numbering) DIQMTQSPSSLSASVGDRVTITCRASQAIDSYLHWYQQKPGKAPKLLIYSASNLETGVPSRFSGSGSGTDFTLTISSLLPEAFATYYCQQVVWRPFTFGQGTKVEIKRV[human IgG1 Fc with changes left out]
0.251 AU | TNFα dAb Fc variant D82H (Fc fusion, name in Kabat numbering) DIQMTQSPSSLSASVGDRVTITCRASQAIDSYLHWYQQKPGKAPKLLIYSASNLETGVPSRFSGSGSGTDFTLTISSLLPEHFATYYCQQVVWRPFTFGQGTKVEIKRV[human IgG1 Fc with changes left out]
0.346 AU | TNFα dAb Fc variant D82K (Fc fusion, name in Kabat numbering) DIQMTQSPSSLSASVGDRVTITCRASQAIDSYLHWYQQKPGKAPKLLIYSASNLETGVPSRFSGSGSGTDFTLTISSLLPEKFATYYCQQVVWRPFTFGQGTKVEIKRV[human IgG1 Fc with changes left out]
0.244 AU | TNFα dAb Fc variant D82L (Fc fusion, name in Kabat numbering) DIQMTQSPSSLSASVGDRVTITCRASQAIDSYLHWYQQKPGKAPKLLIYSASNLETGVPSRFSGSGSGTDFTLTISSLLPELFATYYCQQVVWRPFTFGQGTKVEIKRV[human IgG1 Fc with changes left out]
0.204 AU | TNFα dAb Fc variant D82P (Fc fusion, name in Kabat numbering) DIQMTQSPSSLSASVGDRVTITCRASQAIDSYLHWYQQKPGKAPKLLIYSASNLETGVPSRFSGSGSGTDFTLTISSLLPEPFATYYCQQVVWRPFTFGQGTKVEIKRV[human IgG1 Fc with changes left out]
0.195 AU | TNFα dAb Fc variant D82Q (Fc fusion, name in Kabat numbering) DIQMTQSPSSLSASVGDRVTITCRASQAIDSYLHWYQQKPGKAPKLLIYSASNLETGVPSRFSGSGSGTDFTLTISSLLPEQFATYYCQQVVWRPFTFGQGTKVEIKRV[human IgG1 Fc with changes left out]
0.224 AU | TNFα dAb Fc variant D82S (Fc fusion, name in Kabat numbering) DIQMTQSPSSLSASVGDRVTITCRASQAIDSYLHWYQQKPGKAPKLLIYSASNLETGVPSRFSGSGSGTDFTLTISSLLPESFATYYCQQVVWRPFTFGQGTKVEIKRV[human IgG1 Fc with changes left out]
0.265 AU | TNFα dAb Fc variant D82Y (Fc fusion, name in Kabat numbering) DIQMTQSPSSLSASVGDRVTITCRASQAIDSYLHWYQQKPGKAPKLLIYSASNLETGVPSRFSGSGSGTDFTLTISSLLPEYFATYYCQQVVWRPFTFGQGTKVEIKRV[human IgG1 Fc with changes left out]
0.896 AU | TNFα dAb Fc variant E81A (Fc fusion, name in Kabat numbering) DIQMTQSPSSLSASVGDRVTITCRASQAIDSYLHWYQQKPGKAPKLLIYSASNLETGVPSRFSGSGSGTDFTLTISSLLPADFATYYCQQVVWRPFTFGQGTKVEIKRV[human IgG1 Fc with changes left out]
0.799 AU | TNFα dAb Fc variant E81D (Fc fusion, name in Kabat numbering) DIQMTQSPSSLSASVGDRVTITCRASQAIDSYLHWYQQKPGKAPKLLIYSASNLETGVPSRFSGSGSGTDFTLTISSLLPDDFATYYCQQVVWRPFTFGQGTKVEIKRV[human IgG1 Fc with changes left out]
0.795 AU | TNFα dAb Fc variant E81H (Fc fusion, name in Kabat numbering) DIQMTQSPSSLSASVGDRVTITCRASQAIDSYLHWYQQKPGKAPKLLIYSASNLETGVPSRFSGSGSGTDFTLTISSLLPHDFATYYCQQVVWRPFTFGQGTKVEIKRV[human IgG1 Fc with changes left out]
0.803 AU | TNFα dAb Fc variant E81K (Fc fusion, name in Kabat numbering) DIQMTQSPSSLSASVGDRVTITCRASQAIDSYLHWYQQKPGKAPKLLIYSASNLETGVPSRFSGSGSGTDFTLTISSLLPKDFATYYCQQVVWRPFTFGQGTKVEIKRV[human IgG1 Fc with changes left out]
